According to the supplement of paper PMC10126150:
Values marked as one replicate rest on one cluster of the flow cell; about a third of the high ones do not repeat.

The sequences below were run on ATP (assay: switch fluorescence ratio, 500 uM ATP over buffer (Cy3 cluster intensity, sum of 5 cycles each) (fold (ratio)); higher = stronger signal-on switching upon ATP binding; sequences stand for … in TCGTCGGCAGCGTCAGATGTGTATAAGAGACAGTTTTTTTTTTTTTTTTTTTTTTTTT…TC). Settings: aptamer strand: ATP DNA aptamer (quencher-CACCTGGGGGAGTATTGCGGAGGAAGG + anchor), 100 nM annealed; ATP concentration: 500 uM; one replicate.
Procedure, shortened: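 Per cluster, summed Cy3 intensity from the target cycles was divided by that from the buffer cycles to give the fluorescence ratio, then averaged per switch-domain sequence. Clusters outside 100-1000 RFU were excluded. The Cy3-labelled switching-strand clusters, on a modified Illumina MiSeq flow-cell, were annealed to 100 nM quencher-labelled ATP aptamer and imaged in selection buffer, then after 15 min with 500 uM ATP at 22 °C, for five cycles with NaOH stripping and re-annealing between them.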
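Note: ATP exposure 15 min at 22 °C before imaging.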

Sequence	switch fluorescence ratio
GCAGACAGTT	1.03
AGCTCCGGTT	1.07
TATAGTAC	1.03
TGTTGGAATA	1.01
CAATACAGTT	1.03
TGACAGACTT	1.06
TTACCTGCTT	1.09
GATAGACTC	1.03
TCAGACT	0.999
GCACGGTCTC	1.05
ACGTTTTCA	1.04
AACTCCAGCG	1.16
ACGTTTACTG	1.1
CCTTTATCTA	1.01
TGATGTGAGG	0.993
TTGGAGGGCA	0.972
TGTGTGAAGA	1.04
ACTCCTGATT	1.67
GTTCAGAGG	0.994
GATATCCAGT	0.962
AAGCTTCAC	1.36
AAATCATTTT	1

Sequence	switch fluorescence ratio
CGGCTTAAGC	1
TTAGTGGCAA	1.36
TCCCCCCCGA	1.12
AAAGTATGCA	0.991
CGTTAACGTA	0.985
CCTCCTAAAG	2.87
CTGACGGGGC	2.23
ACTGGGGTTG	1.03
ACTCTTGGCT	1.04
AAACCATCTT	1.03
TAAGACCGAA	0.967
CTATTCCATT	1.01
TTAGGTGCCA	1.48
CAGACAGTAT	1.03
TTCAATTGGG	1.05
CCTCATGACT	1.25
AATGCGGGA	1.01
TACAAATGGT	1.03
ACGATGACCA	0.996
TTCACCCTGT	0.985
ATAGCGCAGG	1.04
CGATCGTAAG	1

Sequence	switch fluorescence ratio
GCCCAAGAGG	1.03
TTGGAGAAGC	0.952
GTGACTTAGG	0.986
TTACCTTGCA	1.08
GCGTGACGCC	0.997
TTCAGACCTC	1.02
CTTAAGGATT	1.04
GGACGCTTAT	1.29
ATGCCCTCCA	0.984
GACATTACGG	1.17
ACCAAAGGAT	1.14
AACGTCGGGC	0.979
GGCAGCGCAT	0.927
GGGTAAGGC	1.58
AAGTGACGCT	0.984
GGACTCTTCA	1.04
GCTCTTTAC	1.21
TTGGCCCCCC	1.01
CAGTTGTCAC	1.04
TCATCAGGCG	0.998
GTGTGGATAA	0.977
CGAGGGACTT	1.03

Sequence	switch fluorescence ratio
CTGATAAATG	0.96
TAGACCGTCC	1.87
GCTAGGGGGC	0.98
GTGACCCAAG	1
AGGAACCATA	1.06
TACAAAGGGT	1.01
GGGAAGACGT	1
ACGCATATGG	1.98
ATGGTCAACA	1.03
TGTTCCTTTA	1.02
GAGGGGCCAT	0.97
ATGTTGGGT	0.951
CTCGAGAACT	0.993
CACGAGGACC	0.975
GCAAGGTCAC	1.07
ATTATTAGAG	1.01
CCATGCTAAT	1.05
CATGCCCGTC	0.977
CGAGCGGGCG	0.936
